Assay results taken from PubChem BioAssay AID360 (National Center for Advancing Translational Sciences (NCATS), 2006).
The campaign covered roughly 48,000 compounds. About 550 (1.1%) were called active. Another 4% or so got no clear call; they are omitted. Cut-off read from the data, not from the text of the source: active = potency below about 15 µM; inconclusive = mostly about 16 µM to 33 µM; inactive = weaker than that. The list shows a part of the results.

Biological target: Lysosomal acid glucosylceramidase (Homo sapiens) (UniProt P04062)
Experiment: Glucocerebrosidase;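 note: the screen sought inhibitors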
Settings: purified enzyme, resorufin glucoside fluorescence (screen aimed at inhibitors), 20 min
Summary of the method: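 Wild-type enzyme at 0.2 nM final in 50mM citric acid/KH2PO4, 10mM sodium taurocholate, 0.01% tween-20, pH 5.9, with resorufin beta-D-glucopyranoside at 30 uM final. Compounds titrated, 20 min at RT, red fluorescence read; AC50 from titration.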
Potency is the fitted concentration of half-maximal effect.

Sequence of UniProt P04062 (P04062 whole entry, looked up): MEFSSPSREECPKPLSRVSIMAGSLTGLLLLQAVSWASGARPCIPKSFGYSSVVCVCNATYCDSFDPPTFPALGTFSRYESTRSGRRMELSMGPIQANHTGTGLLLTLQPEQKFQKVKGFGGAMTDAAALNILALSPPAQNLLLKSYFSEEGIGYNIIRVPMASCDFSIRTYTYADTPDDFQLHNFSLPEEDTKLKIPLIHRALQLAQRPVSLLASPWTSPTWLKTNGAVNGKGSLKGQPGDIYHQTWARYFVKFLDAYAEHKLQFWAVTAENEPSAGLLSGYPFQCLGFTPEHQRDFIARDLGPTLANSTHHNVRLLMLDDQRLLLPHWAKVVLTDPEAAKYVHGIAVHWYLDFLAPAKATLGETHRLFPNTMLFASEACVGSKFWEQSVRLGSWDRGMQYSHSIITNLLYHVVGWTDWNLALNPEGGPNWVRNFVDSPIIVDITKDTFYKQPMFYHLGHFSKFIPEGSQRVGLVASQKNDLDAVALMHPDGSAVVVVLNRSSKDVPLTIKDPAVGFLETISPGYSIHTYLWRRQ

Potency, inactive:
C/C=C(\CS(=O)(=O)c1ccccc1)S(=O)(=O)c1ccccc1 > 76.9 µM
O=C(NCc1ccc(F)cc1)c1ccc(CS(=O)(=O)Cc2ccc(F)cc2)o1 > 76.9 µM
Cc1cc(NC(=O)c2noc3c2CCCC3)nn1Cc1ccc(Cl)cc1 > 76.9 µM
CCOC(=O)C1C(=O)CC(C)(O)C(C(=O)OCC)C1c1ccc(Br)o1 (stereo unspecified) > 76.9 µM
CN(C)Cc1c(C#N)c2ccccc2n1C > 76.9 µM
CSCCC(NC(=O)c1cncc(Br)c1)C(=O)O (stereo unspecified) > 76.9 µM
CC(=O)NC1(c2ccccc2)CCN(C(=O)N2CCOCC2)CC1 > 76.9 µM
CCN1CCN(C(=O)c2cc3nc(-c4ccccc4)cc(C(F)(F)F)n3n2)CC1 > 76.9 µM
COc1ccc(-c2nc(N3CCOCC3)nc3n[nH]c(N)c23)cc1 > 76.9 µM
CC1(C)CC2CC(C)(CN2C(=O)COC(=O)c2n[nH]c(=O)c3ccccc23)C1 (stereo unspecified) > 76.9 µM
Cc1ccc(S(=O)(=O)N2CCC(C(=O)N3Cc4ccccc4C3)CC2)cc1 > 76.9 µM
CCOC(=O)C1CCN(C(=O)CSc2nnc(-c3ccco3)n2-c2ccccc2)CC1 > 76.9 µM
COc1nccc(Nc2ccccc2)c1C#N > 76.9 µM
CCC(C)(C)n1nnnc1C(c1cccs1)N1CCc2ccccc21 (stereo unspecified) > 76.9 µM
Cc1ccccc1Cn1cc(NC(=O)c2noc3c2CC(C(C)(C)C)CC3)cn1 (stereo unspecified) > 76.9 µM
COC(=O)c1ccc(COc2ccc(C3C4=C(CCCC4=O)Nc4onc(C)c43)cc2)cc1 (stereo unspecified)
COc1cccc(-n2c(CNC(=O)OC(C)(C)C)n[nH]c2=S)c1 > 76.9 µM
CC(C)CNC(=O)C1CCN(c2ccc(S(=O)(=O)N3CCOCC3)cc2Cl)CC1 > 76.9 µM
COc1ccc(CCNC(=O)CCCn2c(SCC#N)nc3ccccc3c2=O)cc1OC > 76.9 µM
Cc1cc(=O)n(CC(C)C)c(O)c1C#N > 76.9 µM
CN(CC(=O)N1CCCCCC1)S(=O)(=O)c1ccc(Br)s1 > 76.9 µM
Cc1nnc(SCc2cc(=O)n3[nH]cnc3n2)s1 > 76.9 µM
CCOCCCNC(=O)CCNS(=O)(=O)c1ccc(C)cc1 > 76.9 µM
Cc1ccc(-n2c(C)cc(C)c(C#N)c2=O)cc1 > 76.9 µM
O=C(NCc1cccnc1)C1CCN(S(=O)(=O)N2CCC3(CC2)OCCO3)CC1 > 76.9 µM
O=C(Nc1cccc(C(=O)N2CCOCC2)c1)NC1CCCCC1 > 76.9 µM
CCCOC(=O)CN1C(=O)c2ccccc2C1=O > 76.9 µM
CCOc1cccc(C2C(C(=O)c3ccc(C)o3)=C(O)C(=O)N2Cc2ccncc2)c1 (stereo unspecified) > 76.9 µM
COc1ccc2nc(C)cc(SCC(=O)O)c2c1 > 76.9 µM
COc1ccc(C(=O)c2oc3ccccc3c2N)cc1 > 76.9 µM
COc1cccc(NC(=O)NCc2cccn2C)c1 > 76.9 µM
CC(=O)N1CCc2cc(S(=O)(=O)NC(C(=O)Nc3nc(C)cs3)C(C)C)ccc21 (stereo unspecified) > 76.9 µM
CCOC(=O)c1c(C)[nH]c(C(=O)COC(=O)c2ccccc2NC(=O)c2ccco2)c1C > 76.9 µM
Cn1nnnc1SCC(=O)Nc1ccccc1Cl > 76.9 µM
CCOC(=O)c1cnc2c(-c3ccccc3)c(C)nn2c1N > 76.9 µM
COC(=O)CN(c1ccc2c(c1)OCO2)S(C)(=O)=O > 76.9 µM
Cc1cc(C)c2c(c1)c(C)cc1nnc(SCC(=O)NCc3ccco3)n12 > 76.9 µM
Cc1csc(NC(=O)CSc2nnc(-c3ccncc3)n2C)n1 > 76.9 µM
COc1cc2cc(C(=O)Nc3ccccc3)c(N)nc2cc1OC > 76.9 µM
COc1cccc(-c2nnc(NC(=O)Cc3cccs3)s2)c1 > 76.9 µM
Cc1nn(-c2ccc(C(=O)O)cc2)c(=O)c2ccccc12 > 76.9 µM
COc1ccc(S(=O)(=O)N(C)CC(=O)Nc2ccc(F)cc2)cc1 > 76.9 µM
COc1ccc(N(C)C(=O)CC2(CC(=O)O)CCCCC2)cc1 > 76.9 µM
CCc1ccc2[nH]c(=O)c(CN(Cc3ccc4c(c3)OCO4)Cc3nnnn3C3CCCC3)cc2c1
CCCCn1nnnc1SCC(=O)Nc1ccc(C)cc1 > 76.9 µM
O=C(CC(SCCO)c1ccc2c(c1)OCO2)c1cccs1 (stereo unspecified) > 76.9 µM
COc1ccc(C(CC(=O)NCCCN2CCOCC2)NS(=O)(=O)c2ccc(C)cc2)cc1 (stereo unspecified) > 76.9 µM
COc1ccc2cc3cc(C(=O)NCc4ccccn4)oc3nc2c1 > 76.9 µM
CCN1C(=O)C(C(=O)Nc2ccc(OC)cc2)C2CC1(C)Oc1ccccc12 (stereo unspecified) > 76.9 µM
O=C(CN1C(=O)c2cccc3cccc1c23)N1CCN(c2ccc(F)cc2)CC1 > 76.9 µM
COc1ccc(OC(=O)c2ccncc2)cc1 > 76.9 µM
O=C(CCCCCN1C(=O)CCC1=O)Nc1ccc(Br)cc1F > 76.9 µM
Cc1ccc(C(=O)CSc2nc(N)cc(=O)[nH]2)cc1 > 76.9 µM
Cn1c(CSc2ncccn2)nnc1SCC(=O)N1CCCc2ccccc21 > 76.9 µM
Cc1cc(C)nc(Sc2c(C)nn(-c3ccccc3)c2C)n1 > 76.9 µM
CCN1CCCC1CN(Cc1cc2cc(C)ccc2[nH]c1=O)C(=O)Nc1ccccc1OC (stereo unspecified) > 76.9 µM
COC(=O)c1cccc(CSc2nnc(C)s2)c1 > 76.9 µM
COc1ccc(NC(=O)C2CCN(c3cc(-c4ccccc4)nc4ncnn34)CC2)cc1OC > 76.9 µM
CCCC1(C(=O)OC)NC(c2ccc(OC)c(OC)c2)C2C(=O)N(c3ccc4c(c3)OCO4)C(=O)C21 (stereo unspecified) > 76.9 µM
CC1CN(CCc2ccccc2)c2nc3c(c(=O)[nH]c(=O)n3C)n2C1 (stereo unspecified) > 76.9 µM
CC(OC(=O)c1nn(C)c(=O)c2ccccc12)C(=O)NCc1ccc2c(c1)OCO2 (stereo unspecified) > 76.9 µM
Nc1ccc(C(=O)OCc2nc3ccccc3[nH]2)cc1 > 76.9 µM
O=C1CCCC2=C1C(c1cccs1)n1ncnc1N2 (stereo unspecified) > 76.9 µM
O=C(CSc1nc2ccccc2c(=O)n1CC1CCCO1)NCC1CCCO1 (stereo unspecified) > 76.9 µM
CN1CCN(c2ccc(NC(=O)c3ccc4c(c3)OCO4)cc2)CC1 > 76.9 µM
O=C(NCN1CCCCC1)c1cnccn1 > 76.9 µM
CCn1c(=Nc2ccc(N3CCOCC3)cc2)ccc2ccccc21 > 76.9 µM
C=C(C)c1cccc(C(C)(C)NC(=O)Nc2ccc3[nH]c(=O)[nH]c3c2)c1
CCOc1ccc(NC(=O)C(CC)NC(=O)c2ccccc2CO)cc1 (stereo unspecified) > 76.9 µM
CCN1C(=O)/C(=C2/SC(C)=C(C)N2CC)SC1=S > 76.9 µM
O=c1cc(CO)oc(C(Nc2ccccn2)c2ccsc2)c1O (stereo unspecified) > 76.9 µM
COC(=O)c1[nH]c2cccc(C)c2c1NC(=O)CN1CCN(c2ccccc2OC)CC1 > 76.9 µM
CC(=O)Nc1c(C(=O)C2CC2)oc2ccccc12 > 76.9 µM
C(=C\c1ccco1)/C=N/n1cnnc1 > 76.9 µM
COC1(OC)N=C(N)C2(C#N)C(c3ccc(F)cc3)C12C#N (stereo unspecified) > 76.9 µM
CC1=C(C(=O)OC2CCCCC2)C(c2cccnc2)n2ncnc2N1 (stereo unspecified) > 76.9 µM
CCOC(=O)C1CCN(C(=O)c2cc3cc4cc(OC)ccc4nc3o2)CC1 > 76.9 µM
N=c1c(C(=O)NCc2ccco2)cc2c(=O)n3ccccc3nc2n1Cc1ccccc1 > 76.9 µM
CC(=O)N1CCN(c2ccc(NC(=O)c3ccc4c(c3)OCO4)cc2)CC1
COc1cc(NC(=O)c2ccco2)c(OC)cc1NC(=O)CSc1ncc(-c2ccc(F)cc2)[nH]1 > 76.9 µM
O=C(c1cc(-c2ccccc2)nc2ccccc12)N1CCN(c2ccccn2)CC1 > 76.9 µM
CC(=O)Nc1c(C(=O)O)oc2ccccc12 > 76.9 µM
CCS(=O)(=O)N1CCCC(C(=O)NC2CCC(C)CC2)C1 (stereo unspecified) > 76.9 µM
O=C(OCC(=O)N1CCOCC1)c1ccc[nH]c1=O > 76.9 µM
COc1cc(C2C3C(=O)N(Cc4ccccc4)C(=O)C3ON2c2ccccc2)cc(OC)c1O (stereo unspecified) > 76.9 µM
CC1(C)CC(=O)C=C(N2CCN(C3=CC(=O)CC(C)(C)C3)CC2)C1 > 76.9 µM
O=C1N(CN2CCN(c3cccc(Cl)c3)CC2)c2ccccc2C12OCCCO2 > 76.9 µM
O=C(O)c1ccc(Cl)cc1NC(=O)C1CCCO1 (stereo unspecified) > 76.9 µM
Cn1c(=N)n(CC(=O)O)c2ccccc21 > 76.9 µM
O=C(c1cc(-c2ccc(Cl)c(Cl)c2)on1)N1CCN(c2ccccc2)CC1 > 76.9 µM
CCOc1ccc(-c2c(C#N)c(N)nc3c2c(=O)n(C)c(=O)n3C)cc1OC > 76.9 µM
